According to PubChem BioAssay AID1508642 (National Center for Advancing Translational Sciences (NCATS), 2021):
In all, about 43,000 compounds went through this assay and about 200 (0.47%) were called active. Another 12% or so got no clear call; they are omitted. Calls follow the shape of the dose curve; as a rule, active = well fitted cell-killing curve with a large enough effect; inconclusive = small, poorly fitted or top-dose-only effect, or effect the other way; inactive = flat fitted curve, though single readings scatter. The list shows a part of the results.

Experiment: Cell viability qHTS assay in S16 Pmp22-F2sN cells; also: nearly all actives have a fitted effect of over 65% in size
Conditions: S16 Pmp22-F2sN Schwann cells viability, CellTiter-Glo, 24 h; series mostly up to 57.5 µM; activity change, negative = cytotoxicity: at the top concentration
Summary of the method: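 Used to flag compounds lowering reporter output through toxicity, this quantitative HTS measures ATP-based CellTiter-Glo luminescence in S16 Pmp22-F2sN Schwann cells after 24 h compound exposure at 37C.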
% is scaled to controls: 0 for no effect and ±100 for the full control effect.

Row | Compound | activity change, negative = cytotoxicity
1 | COCCn1c(CNC(=O)c2ccc(C)cc2)nc2cccnc21 | inactive: 11.2%
2 | Cc1ccc(-n2nc(C)c(C(=O)NCCCN3CCN(c4ccc(F)cc4)CC3)c2-n2cccc2)cc1 | inactive: -29.5%
3 | Cc1ccccc1CS(=O)(=O)CC1Nc2ccc(C(=O)NCc3ccc(Cl)cc3)cc2NC1=O (centres undefined) | inactive: -0.997%
4 | COc1ccc(N2CCN(c3oc(/C=C/c4ccc(F)cc4)nc3C#N)CC2)cc1 | inactive: 10.9%
5 | CCc1ccc(CN(Cc2ccco2)C(=O)c2ccc(OC)cc2)cc1 | inactive: 4.94%
6 | Cc1nnc(SCc2ccccc2)c2cc3sccc3n12 | inactive: -19.4%
7 | CCOc1cc(C(=O)N2CC(=O)Nc3ccc(C)cc3C2c2ccccc2)cc(OCC)c1OCC (centres undefined) | inactive: -11.5%
8 | CCc1ccc(CNC(=O)CCC(=O)N2Cc3cccc(OC)c3Oc3ncccc32)cc1 | inactive: 7.71%
9 | Cc1ccc(C(=O)NCCc2ccc(Cl)cc2)cc1-n1c(C)nc2cccnc21 | inactive: 2.77%
10 | COc1cc(-c2noc(-c3ccc(NCc4ccccc4)c([N+](=O)[O-])c3)n2)cc(OC)c1OC | inactive: 13.3%
11 | CCOc1ccc(NC(=O)CCNS(=O)(=O)c2ccc3c(c2)oc(=O)n3C)cc1 | inactive: 3.53%
12 | CCOc1ccc(-c2nn(CC(=O)NC3CCCCC3)c3c2cnc2ccc(C)cc23)cc1 | inactive: 1.1%
13 | CCCn1c2ccccc2c2cnn(CC(=O)NCCc3ccc(OCC)cc3)c(=O)c21 | inactive: 9.85%
14 | COc1ccc(NC(=O)Cn2nnc3sc4c(c3c2=O)CCC(C)C4)c(OC)c1 (centres undefined) | inactive: 12.5%
15 | COc1ccccc1CNC(=O)c1ccc2c(c1)N(Cc1cccc(C)c1)C(=O)c1ccccc1S2(=O)=O | inactive: 13.2%
16 | COc1ccc(Cl)cc1NC(=O)c1sc(-n2nc(C)c(Cc3ccccc3)c2C)nc1C | inactive: 13.8%
17 | Cc1ccc(C)c(Cn2c3ccccc3c3cnn(CC(=O)NCCC4=CCCCC4)c(=O)c32)c1 | inactive: -2.62%
18 | COc1ccc(OC)c(CCNC(=O)c2ccc3c(c2)N(Cc2ccc(C)cc2)CCS3)c1 | inactive: -3.76%
19 | COc1ccc(F)cc1S(=O)(=O)NCCc1c(C)[nH]c2c(Cl)cccc12 | inactive: -1.29%
20 | Cc1cc(C)cc(NC(=O)CSc2nc3c(oc4ccccc43)c(=O)n2-c2ccccc2F)c1 | inactive: 0.0406%
21 | COc1ccc2cc3cc(C(=O)NCc4ccc(C)cc4)oc3nc2c1 | inactive: 0.94%
22 | CCOC(=O)N1CCC(NC(=O)c2c(C)nn(-c3ccc(C)cc3)c2-n2cccc2)CC1 | inactive: -11.3%
23 | CCOCCCNC(=O)C1CCN(c2nn3cc(-c4ccc(F)cc4)nc3s2)CC1 | inactive: -3.28%
24 | COc1ccc(Nc2cc(C(=O)NCCc3ccc(C)cc3)c3ccccc3n2)c(OC)c1 | inactive: -0.339%

Row | Compound | activity change, negative = cytotoxicity
25 | CCc1ccc(S(=O)(=O)c2cn(CC(=O)Nc3ccc(C)cc3)c3ccccc3c2=O)cc1 | inactive: 19.4%
26 | COC(=O)c1scc(-c2ccc(C)cc2)c1S(=O)(=O)Nc1cc(Cl)ccc1C | inactive: 14.1%
27 | Cn1c(=O)c(=O)n(C)c2cc(N3CCOCC3)c(NS(=O)(=O)c3ccc(Cl)cc3)cc21 | inactive: 4.36%
28 | Cc1ccc(CNC(=O)c2ccc3nc(N4CCCCC4)sc3c2)cc1 | inactive: -18.5%
29 | COc1cccc(C(c2sc3nc(-c4ccco4)nn3c2O)N2CCC(O)CC2)c1 (centres undefined) | inactive: -0.827%
30 | CCOc1ccc(CCNC(=O)c2ccc3c(Cl)c4c(nc3c2)CCCC4)cc1 | inactive: 12.5%
31 | CCOC(=O)c1ccc(NC(=O)c2c(NC(C)=O)sc3c2CCC(C)C3)cc1 (centres undefined) | inactive: 6.87%
32 | O=S(=O)(NCCc1nnc2ccc(SCc3ccc(Cl)cc3Cl)nn12)c1ccccc1 | inactive: -16.8%
33 | CCOc1ccccc1NC(=O)c1sc2nc3n(c(=O)c2c1C)CCCCC3 | inactive: 17.2%
34 | COc1ccc(CCNS(=O)(=O)c2ccc3c(c2)CC(C)N3C(=O)C2CCC2)cc1OC (centres undefined) | inactive: -19%
35 | CCOc1ccc(CC(=O)NCCc2csc(-c3ccc(C)cc3)n2)cc1 | inactive: -14.3%
36 | COc1ccc(S(=O)(=O)n2nc(C)c(S(=O)(=O)N3CCC(C)CC3)c2C)cc1C | inactive: 1.54%
37 | CCC(=O)Nc1c(C(=O)N2CCN(c3ccc(F)cc3)CC2)oc2ccccc12 | inactive: -5.22%
38 | CCOc1ccc(N(C(=O)CC(C)C)S(=O)(=O)c2ccc3c(c2)oc(=O)n3C)cc1 | inactive: 4.55%
39 | COc1ccc(CCNC(=O)CCCn2c(=O)c3ccccc3n(Cc3cccc(Cl)c3)c2=O)cc1OC | inactive: 6.84%
40 | COc1ccc(NC(=O)Cn2nnc(C(=O)Nc3ccc(F)c(Cl)c3)c2N)cc1OC | inactive: 7.58%
41 | Cc1ccc(NC(=O)Cn2cc(C(=O)C3CC3)c3ccccc32)cc1 | inactive: 8.36%
42 | Cn1c(SCc2ccc(F)cc2)nc2ccc(C(=O)NCc3ccc(Cl)cc3)cc21 | inactive: -25%
43 | COc1ccc(-c2noc(CN(C(=O)COc3cc(C)c(Br)c(C)c3)C(C)C)n2)cc1 | inactive: -20%
44 | CCCn1c(SCc2nc(-c3ccc(OC)cc3OC)no2)nnc1-c1ccc(Cl)cc1 | inactive: -17.4%
45 | Cc1cccc(C)c1NC(=O)CSc1nc(-c2ccccc2)nc2c1Cc1c(CO)cnc(C)c1O2 | inactive: 4.65%
46 | O=C1NCCN(Cc2ccc(F)cc2)C1=O | inactive: 2.49%
47 | Cc1ccc2[nH]c(CSc3nnc(NC(=O)COc4ccccc4)s3)cc(=O)c2c1 | inactive: -13.2%
48 | COc1ccc(-n2c(SCC(=O)Nc3ccc(Cl)c(C)c3)nc3n[nH]c(C)c3c2=N)cc1 | inactive: -11%

Row | Compound | activity change, negative = cytotoxicity
49 | NC(=O)c1c(NC(=O)c2nc(SCc3ccccc3F)ncc2Cl)sc2c1CCCC2 | inactive: 12.5%
50 | COc1cc(C(=O)NCCCc2nc3ccccc3n2CC(C)C)cc(OC)c1OC | inactive: 2.85%
51 | O=C(C1CCN(S(=O)(=O)c2ccc(Br)s2)CC1)N1CCN(c2cccc(Cl)c2)CC1 | inactive: -24%
52 | Cc1ccc(Sc2c(C)nn(C(=O)COc3ccccc3Br)c2C)cc1 | inactive: -0.468%
53 | CCOc1ccc(CCNC(=O)c2sc3nc4n(c(=O)c3c2C)CCCC4)cc1OCC | inactive: 2.12%
54 | CCOC(=O)c1ccc(NC(=O)CCn2c(=O)c3cccn3c3ccccc32)cc1 | inactive: -2.94%
55 | COc1ccc(OC)c(CNC(=O)c2nn(-c3ccc(OC)c(Cl)c3)c(=O)c3c2c2ccccc2n3C)c1 | inactive: 14%
56 | CCCCn1cc(S(=O)(=O)c2ccc(C)c(C)c2)c(=O)c2cc(F)c(N3CCCC(C)C3)cc21 (centres undefined) | inactive: 14.4%
57 | CCS(=O)(=O)N1CCc2cc(C(=O)Nc3ccc(OC)c(Cl)c3)ccc21 | inactive: -20.2%
58 | CCOc1ccc2nc(N3CCCC(C(=O)Nc4c(C)cccc4C)C3)sc2c1 (centres undefined) | inactive: -4.21%
59 | CCOC(=O)c1sc2ncn(CC(=O)Nc3ccc(N(C)C)cc3)c(=O)c2c1C | inactive: 17.2%
60 | Cc1cc(C)cc(-n2ccnc2SCC(=O)Nc2nnc(C)s2)c1 | inactive: -10.2%
61 | O=C(Nc1nc2ccc(S(=O)(=O)N3CCCC3)cc2s1)c1cccc(F)c1 | inactive: -20.7%
62 | Cc1ccc(-c2nc(C)c(CCNC(=O)c3ccco3)s2)cc1 | inactive: 0.0584%
63 | CCc1ccc(CNC(=O)CN2C(=O)c3cccnc3Oc3ccc(Cl)cc32)cc1 | inactive: -2.7%
64 | O=C(CSc1nc2ccccc2nc1Cc1ccc(Cl)cc1)N1CCc2ccccc21 | inactive: -3.33%
65 | CCN(c1cccc(C)c1)S(=O)(=O)c1nnc(NC(=O)C2CCCCC2)s1 | inactive: 9.23%
66 | O=C(CSC1=Nc2ccccc2C2=NC(CC(=O)NC3CCCCC3)C(=O)N12)Nc1ccc(F)cc1 (centres undefined) | inactive: -8.73%
67 | CCOc1ccc(NC(=O)CSc2ncc3c(n2)-c2ccc(Cl)cc2N(Cc2ccccc2)S3(=O)=O)cc1 | inactive: 2.84%
68 | COc1ccc(-c2nc3sc(CCNC(=O)c4cc(OC)c(OC)c(OC)c4)c(C)n3n2)cc1 | inactive: 2.02%
69 | COC(=O)c1nc2n(n1)C(c1cccc(Cl)c1)C(C(=O)Nc1ccccc1OC)=C(C)N2 (centres undefined) | inactive: -4.45%
70 | Cc1cccc(C)c1NC(=O)C(NS(=O)(=O)c1ccc2c(c1)CCC(=O)N2)c1ccccc1 (centres undefined) | inactive: -1.3%
71 | Cc1c2cnn(-c3ccccc3)c(=O)c2c(C)n1CCCC(=O)Nc1cc(F)ccc1F | inactive: -11.1%
72 | CCOc1ccc(C2c3[nH]c4ccccc4c3CCN2C(=O)CCc2ccccc2)cc1 (centres undefined) | inactive: -2.86%

Row | Compound | activity change, negative = cytotoxicity
73 | COc1ccc(C)cc1NC(=O)c1oc2ccc(S(=O)(=O)N3CCCCC3)cc2c1C | inactive: -1.57%
74 | Cc1ccc(C)c(N2CCN(S(=O)(=O)c3cc(Br)cc4c3N(C(=O)C3CC3)CC4)CC2)c1 | inactive: -3.37%
75 | COc1ccc(-n2nc(C(=O)Nc3ccccc3OC)c3c4ccccc4n(C)c3c2=O)cc1Cl | inactive: 12.7%
76 | Cc1ccc(CSc2nc(-c3cccs3)ccc2C#N)cc1 | inactive: -0.142%
77 | COc1cccc(-c2nn(C)c3sc(C(=O)NCCc4ccc(Cl)cc4)cc23)c1 | inactive: -2.02%
78 | Cc1ccc(C(=O)n2nc(C)c(S(=O)(=O)N3CCOCC3)c2C)cc1 | inactive: -2.01%
79 | CCOc1ccc(NC(=O)NCCCN2CCN(c3ccc(F)cc3)CC2)cc1 | inactive: -6.16%
80 | Cc1cccc(N2CCN(c3cc(C)nc4c(-c5ccc(Cl)cc5)c(C)nn34)CC2C)c1 (centres undefined) | inactive: 10.6%
81 | FC(F)(F)c1cc(-c2ccccc2)nc2cc(-c3ccc(Br)cc3)nn12 | inactive: 7.19%
82 | COc1ccc(-c2cn3nc(N4CCCC(C(=O)Nc5ccc(C)c(C)c5)C4)sc3n2)cc1 (centres undefined) | inactive: 29.5%
83 | Cc1ccc(-n2nnnc2CNC(=O)c2ccccc2S(C)(=O)=O)cc1C | inactive: -1.16%
84 | CCCn1cc(S(=O)(=O)c2cc(C)ccc2C)c(=O)c2cc(F)c(N3CCOCC3)cc21 | inactive: -7.17%
85 | CCc1ccc2occ(CC(=O)Nc3c(C(=O)Nc4ccc(C)cc4)oc4ccccc34)c2c1 | inactive: 0.142%
86 | COC(=O)c1c(SCC(=O)Nc2cc(C)cc(C)c2)[nH]c2ccccc2c1=O | inactive: -11.5%
87 | O=C(CCC(=O)OCC(=O)c1ccc(Cl)cc1)Nc1ccc(Oc2ccccc2)cc1 | inactive: -0.735%
88 | COc1ccc(N2CCN(C(CNC(=O)C(=O)NCCCN(C)C)c3cccnc3)CC2)cc1 (centres undefined) | inactive: 3.49%
89 | CCC(=O)N1c2nc(-c3ccco3)nn2C2(CCCCC2)[C@@H]2CCCC[C@@H]21 | inactive: 2.87%
90 | Cc1ccc(CSc2nc3cccnc3n2Cc2ccc(C(=O)NCCc3ccccc3)cc2)cc1 | inactive: -2.54%
91 | CCS(=O)(=O)N1CCc2cc(C(=O)Nc3cccc(Cl)c3C)ccc21 | inactive: 0.482%
92 | Cc1nc2c(-c3ccccc3)c(C)nn2c(C)c1CCC(=O)NCc1ccccc1Cl | inactive: 8.72%
93 | O=C(Nc1cc2c(cc1C(=O)c1ccccc1Cl)OCCO2)c1ccc(Br)cc1 | inactive: -0.831%
94 | CCOC(=O)C1=C(CS(=O)(=O)c2ccc(C)cc2)NC(=O)NC1c1ccc(C(C)C)cc1 (centres undefined) | inactive: -27%
